# PubChem BioAssay AID588855 (National Center for Advancing Translational Sciences (NCATS), 2011)
# Hit rate of the full screen: of about 410,000 compounds, about 5,000 (1.2%) were called active. The shares of active, inactive and inconclusive entries below differ from those in the screen. The call rests on the fitted dose curve; in most records, active means well fitted inhibition curve with a large enough effect; inconclusive means small, poorly fitted or top-dose-only effect; inactive means no such curve, though single readings can be large or run the other way. Potencies of inconclusive entries are doubtful fits and often do not repeat.
# Experiment: qHTS for Inhibitors of TGF-b; further: nearly all actives have a fitted effect of over 65% in size
# Conditions: HepG2 CAGA-GFP TGF-b/SMAD3 reporter, GFP fluorescence, 18 h, TGF-beta stimulated, 500 pg/mL final; series mostly up to 46.1 µM; activity, negative = inhibition: at the top concentration
# How it was run: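 HEPG2 CAGA-GFP reporter cells (1000/well, DMEM with 1% FBS) received compounds, then recombinant TGF-beta at 500 pg/mL final for 18 hours at 37 degrees C. Per-cell GFP summed per well was normalised to unstimulated and stimulated DMSO controls before curve fitting.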
# On the % scale 0 is the no-effect control and ±100 the full control effect; potency means the concentration at half of the fitted maximal effect; tags describe the fitted curve by direction and shape.
Structure (SMILES),Potency,"activity, negative = inhibition"
CS/C(=N\S(=O)(=O)c1cccs1)Nc1ccc(F)c(Cl)c1,active: 8.91 µM,–
CCOC(=O)c1ccc(N2C(=O)c3n[nH]c(-c4ccco4)c3C2c2ccc([N+](=O)[O-])cc2)cc1 (configuration not stated),"inconclusive: 31.6 µM [inhibitor, single point]",–
CCOc1cccc(OCCCCn2cnc3ccccc3c2=O)c1,"inconclusive: 35.5 µM [inhibitor, single point]",–
O=C(NC1CC(=O)N(c2cccc(F)c2)C1)C(c1ccccc1)c1ccccc1 (configuration not stated),–,inactive: 0%
N=c1c2c3c(sc2ncn1Nc1ccccc1)CCC3,–,inactive: -28%
COC(=O)c1c(NC(=O)c2nc(SCc3ccccc3C)ncc2Cl)sc2c1CCCC2,"inconclusive: 0.251 µM [inhibitor, full curve, poor fit]",–
OC1c2cc(Br)ccc2N=C2CCCN21 (configuration not stated),"inconclusive: 22.4 µM [inhibitor, single point]",–
CC(=NNC(=O)CSCC(=O)NN=C(C)c1ccccc1)c1ccccc1,"inconclusive: 3.98 µM [inhibitor, partial curve, poor fit]",–
CC1CCCN(S(=O)(=O)c2ccc(N3CCCCS3(=O)=O)cc2)C1 (configuration not stated),–,inactive: -1.55%
O=C(COc1ccc2c(-c3ccccc3)cc(=O)oc2c1)NC1CCS(=O)(=O)C1 (configuration not stated),–,inactive: 1.51%
CC1(C)Cc2c(cnn2-c2ccccc2)C(NC(=O)CCN2CCCCO2)C1 (configuration not stated),–,inactive: 4.89%
Cc1ccc(NS(=O)(=O)c2ccc3[nH]c4c(c3c2)CCCCCC4)cc1,"inconclusive: 22.4 µM [inhibitor, single point]",–
CCn1c(=O)c2ccccc2n2c(SCC(=O)N3CCc4ccccc4C3)nnc12,–,inactive: -23%
Cc1cc(C)cc(NC(=O)N2CCC(CN3CCc4ccccc4C3)CC2)c1,"inconclusive: 1.41 µM [inhibitor, full curve, poor fit]",–
N#Cc1ccc(NC2=NS(=O)(=O)c3ccccc32)cc1,"inconclusive: 1.12 µM [inhibitor, full curve, poor fit]",–
Cc1ccc(NC(=O)c2cc(NC(=O)/C=C\C(=O)O)ccc2N2CCCCC2)cc1,"inconclusive: 11.2 µM [inhibitor, partial curve, poor fit]",–
CCCCCCCCCCOC(=O)Cn1c(COc2ccc(C)cc2)[n+](C)c2ccccc21,"inconclusive: 35.5 µM [inhibitor, single point]",–
Cc1cccc2sc(N(CCCN(C)C)C(=O)c3ccc(C(=O)c4ccccc4)cc3)nc12,"inconclusive: 35.5 µM [inhibitor, single point]",–
CN(C)S(=O)(=O)Oc1ccsc1C(=O)Nc1cccc(Cl)c1,–,inactive: 1.5%
Cn1c(-c2c(N)n(C3CCCC3)c3nc4ccccc4nc23)nc2ccccc21,"inconclusive: 28.2 µM [inhibitor, single point]",–
Cc1cc(C)c(/C=N/NC(=O)c2nnn(-c3nonc3N)c2CN2CCC(C)CC2)c(C)c1,"inconclusive: 12.6 µM [inhibitor, single point]",–

Structure (SMILES),Potency,"activity, negative = inhibition"
C=CCc1ccc(OCc2ccc(C(=O)Nc3ccc(NC(C)=O)cc3)o2)c(OC)c1,"inconclusive: 35.5 µM [inhibitor, single point]",–
Cc1ccc(Nc2cc(C)c3c(O)cccc3n2)cc1C,"inconclusive: 17.8 µM [inhibitor, single point]",–
O=S(=O)(Nc1cccc2cccnc12)c1cccs1,active: 2.24 µM,–
NS(=O)(=O)c1ccc(CCNc2ccn3nc(-c4cccc(C(F)(F)F)c4)cc3n2)cc1,–,inactive: -20.8%
Cc1ccc(C(C(=O)NC2CCCCC2)N(Cc2ccccc2)C(=O)Cc2c[nH]c3ccccc23)o1 (configuration not stated),"inconclusive: 35.5 µM [inhibitor, partial curve, poor fit]",–
CC(C)c1ccc(C2CC(c3ccc(Br)cc3)=NN2C(N)=S)cc1 (configuration not stated),"inconclusive: 35.5 µM [inhibitor, single point]",–
CCOC(=O)c1c(C)c(-c2ccccc2)n(CC(=O)NC2CCCCCC2)c1C,"inconclusive: 25.1 µM [inhibitor, single point]",–
Cc1ccc2c(c1)C1CN(C)CCC1N2S(=O)(=O)c1cc(C(F)(F)F)ccc1Cl (configuration not stated),"inconclusive: 11.2 µM [inhibitor, single point]",–
CC(C)c1ccc(NC(=O)c2ccc(Cn3nc(N4CCN(c5ccccc5)CC4)ccc3=O)o2)cc1,"inconclusive: 1.78 µM [inhibitor, full curve, poor fit]",–
CC(C)(C)CN1CCNC(=O)C1CC(=O)NCCN1CCCc2ccccc21 (configuration not stated),–,inactive: -14.6%
CCn1c(SCC(=O)N/N=C/C=C\c2ccco2)nc2ccccc21,"inconclusive: 11.2 µM [inhibitor, single point]",–
O=C(c1ccc(-c2ccc(Cl)cc2)o1)N1CCN(S(=O)(=O)c2cccs2)CC1,"inconclusive: 35.5 µM [inhibitor, single point]",–
Cc1c(C(=O)N(Cc2cccc(F)c2)C2CCS(=O)(=O)C2)oc2cc(Br)ccc12 (configuration not stated),"inconclusive: 35.5 µM [inhibitor, single point]",–
CCCCc1ccc(NS(=O)(=O)c2cccc(C(=O)N3CCCN(C)CC3)c2)cc1,"inconclusive: 35.5 µM [inhibitor, single point]",–
Cc1ccc(Cn2cc(/C=N/NC(=O)Cc3nnc(NC(=O)c4ccc(C)cc4)s3)c3ccccc32)cc1,–,inactive: -26.6%
Cc1nc(-c2ccccn2)nc(N(C)c2ccccc2)c1Cl,"inconclusive: 25.1 µM [inhibitor, single point]",–
COc1ccc(/C=C2\CCc3ccccc3C2=O)cc1OC,"inconclusive: 25.1 µM [inhibitor, single point]",–
CCCc1cc(N2CCCC(C(=O)Nc3c(OC)cccc3OC)C2)n2ncnc2n1 (configuration not stated),–,inactive: 0.31%
Cc1cc(O)c2c(CN3CCN(Cc4ccccc4)CC3)cc(=O)oc2c1,"inconclusive: 12.6 µM [inhibitor, partial curve, poor fit]",–
O=C(NCc1ccccc1)c1csc(-c2cccnc2)n1,–,inactive: 16.5%
O=C(c1ccncc1)N(c1ccc2oc3c(c2c1)CCCC3)S(=O)(=O)c1ccc(F)cc1,"inconclusive: 28.2 µM [inhibitor, single point]",–
